According to PubChem BioAssay AID720708 (National Center for Advancing Translational Sciences (NCATS), 2013):
Screen size: about 360,000 compounds; about 660 (0.18%) were called active. Inconclusive means that the source gave no clear call. Such entries were picked first, then a sample of the others. The call rests on the fitted dose curve; in most records, active means well fitted inhibition curve with a large enough effect; inconclusive means small, poorly fitted or top-dose-only effect; inactive means no such curve, though single readings can be large or run the other way. No potency is given beside an inconclusive call; the fits are too rough.
Further: nearly all actives have a fitted effect of over 45% in size.
Potency means the concentration at half of the fitted maximal effect; tags describe the fitted curve by direction and shape.

The molecules below were run against Rap guanine nucleotide exchange factor 4 (Homo sapiens) (UniProt Q8WZA2) (assay: qHTS for Antagonist of cAMP-regulated guanine nucleotide exchange factor 2 (EPAC2): primary screen). Conditions: EPAC2 GEF exchange of Rap1B-BODIPY-GDP, fluorescence; series mostly up to 114 µM.
Sequence of UniProt Q8WZA2 (Q8WZA2 whole entry, looked up): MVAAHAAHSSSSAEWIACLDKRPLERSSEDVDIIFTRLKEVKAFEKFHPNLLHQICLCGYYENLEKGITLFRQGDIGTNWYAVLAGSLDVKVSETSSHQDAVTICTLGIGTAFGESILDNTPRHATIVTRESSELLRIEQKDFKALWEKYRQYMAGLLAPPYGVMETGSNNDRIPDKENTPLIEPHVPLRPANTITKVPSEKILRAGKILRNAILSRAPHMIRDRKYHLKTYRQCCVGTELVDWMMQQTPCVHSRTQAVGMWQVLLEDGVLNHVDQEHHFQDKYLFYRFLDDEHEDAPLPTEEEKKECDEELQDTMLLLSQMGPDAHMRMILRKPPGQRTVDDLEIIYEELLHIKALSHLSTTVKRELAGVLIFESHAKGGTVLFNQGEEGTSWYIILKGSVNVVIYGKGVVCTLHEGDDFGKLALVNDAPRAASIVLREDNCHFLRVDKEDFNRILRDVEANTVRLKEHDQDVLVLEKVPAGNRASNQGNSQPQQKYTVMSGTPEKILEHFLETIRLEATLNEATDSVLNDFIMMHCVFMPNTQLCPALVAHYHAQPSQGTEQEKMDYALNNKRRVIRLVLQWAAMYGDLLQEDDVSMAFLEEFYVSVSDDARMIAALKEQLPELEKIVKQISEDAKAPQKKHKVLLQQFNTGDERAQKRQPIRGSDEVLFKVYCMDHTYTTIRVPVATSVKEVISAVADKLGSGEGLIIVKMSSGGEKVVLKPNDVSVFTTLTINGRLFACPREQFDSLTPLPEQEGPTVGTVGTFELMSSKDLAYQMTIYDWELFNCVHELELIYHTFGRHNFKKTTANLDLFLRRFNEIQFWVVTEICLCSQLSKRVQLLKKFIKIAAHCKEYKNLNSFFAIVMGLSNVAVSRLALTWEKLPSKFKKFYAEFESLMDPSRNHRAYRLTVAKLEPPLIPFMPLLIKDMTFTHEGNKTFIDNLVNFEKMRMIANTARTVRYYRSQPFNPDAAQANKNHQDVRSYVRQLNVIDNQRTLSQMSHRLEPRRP
With Nc1ccn(C2OC(CCl)C(O)C2O)c(=O)n1 (centres undefined) the Potency was “inactive”.
With COc1ccc(CCNC(=O)/C=C/c2ccc(OC)c(S(=O)(=O)N3CCOCC3)c2)cc1 the Potency was inconclusive [inhibitor, full curve, poor fit].
Cc1cccc(C)c1NC(=O)CN(C)C(=O)c1ccc(-c2cccc(C(F)(F)F)c2)o1 was tested, and the Potency was inconclusive [inhibitor, partial curve].
CC1(C(=O)NS(=O)(=O)c2cccs2)CCN1C(=O)C1(c2ccc(Cl)cc2)CC1 (centres undefined) was tested, and the Potency was inconclusive [inhibitor, partial curve].
With Cc1cccnc1NC(=O)Nc1cccc2ccccc12 the Potency was inconclusive [inhibitor, single point].
COc1cccc2c1C(=O)c1c(O)c3c(c(O)c1C2=O)CC(O)(C(C)=O)CC3OC1CC(O)C(O)C(C)O1 (centres undefined) was tested, and the Potency was “inactive”.
In the case of COc1ccccc1[C@@]1(C)ON(c2ccccc2C(F)(F)F)C1=O, the Potency is reported as inconclusive [inhibitor, full curve].
For Cc1ccc(Oc2ccccc2NC(=O)CSCC(=O)Nc2cc(C)on2)cc1, the Potency was “inactive”.
For COc1cccc(OC)c1C(=O)Nc1ccccc1Sc1ccccc1, the Potency was inconclusive [inhibitor, full curve].
COCCn1c(C)cc(C(=O)COC(=O)CNC(=O)c2ccccc2)c1C was tested, and the Potency was inconclusive [inhibitor, partial curve, poor fit].
For CCCNC(=O)Cn1c(=O)/c(=C/c2ccc(-c3ccc([N+](=O)[O-])cc3)o2)s/c1=C\C(=O)C(C)(C)C, the Potency was inconclusive [inhibitor, full curve].
Nc1nc(N(Cc2ccccc2)Cc2ccccc2)nc(C(F)(F)F)n1 was tested, and the Potency was inconclusive [inhibitor, full curve, poor fit].
For Cc1nn(Cc2ccccc2)c(Cl)c1C(=O)NCCc1ccccc1, the Potency was inconclusive [inhibitor, single point].
In the case of Cn1c(=O)n(CCOc2ccccc2Cl)c2ccccc21, the Potency is reported as “inactive”.
In the case of COC(=O)c1ccccc1CSc1nsc(C)c1C#N, the Potency is reported as inconclusive [inhibitor, partial curve].
For C[C@H](NC(=O)N1CCn2c1nc1ccccc12)C(=O)N1CCCCC1, the Potency was “inactive”.
Cc1cccc(C(C)C)c1-n1nnnc1-c1ccccc1 was tested, and the Potency was inconclusive [inhibitor, full curve].
For CN(C)c1ccc(CNC(=O)C2(C)Cc3c(-c4cccc(C(F)(F)F)c4)ccnc3O2)cc1 (centres undefined), the Potency was inconclusive [inhibitor, partial curve].
O=C(NC(=S)Nc1ccc(Oc2ccc(Cl)cc2)cc1)c1ccccc1 was tested, and the Potency was “inactive”.
In the case of CC(C)CCNS(=O)(=O)c1ccc(-c2ccc(S(=O)(=O)NCCC(C)C)cc2)cc1, the Potency is reported as “inactive”.
C[C@H]1C(=O)N(c2ccccc2)[C@@H]1c1ccccc1 was tested, and the Potency was inconclusive [inhibitor, partial curve].
With CC(C#N)(NC(=O)CN1CCN(S(=O)(=O)c2cccc(F)c2)CC1)C1CC1 (centres undefined) the Potency was “inactive”.
For COc1ccc(Cl)cc1N1C(=O)C2CCCN2C1c1ccccc1F (centres undefined), the Potency was inconclusive [inhibitor, partial curve, poor fit].
With CCc1c(C2(O)CCCCC2)[nH]c2c(C(=O)OC)cc(Cl)cc12 the Potency was inconclusive [inhibitor, partial curve].
In the case of COCc1cc(C)nc(SCC(=O)Oc2ccccc2)c1C#N, the Potency is reported as “inactive”.
COc1cc2c(cc1OC)C(C)N(C(=O)c1c(-c3ccccc3)noc1C)CC2 (centres undefined) was tested, and the Potency was inconclusive [inhibitor, partial curve].
For COc1ccc(Cn2c(C3CC3)nc3ccc(NC(=O)c4cccnc4)cc3c2=O)cc1, the Potency was inconclusive [inhibitor, full curve, poor fit].
In the case of CN(C)/C=C/C(=O)c1ccc(Br)cc1, the Potency is reported as “inactive”.
Nc1nc(N)c2c(ccc3c2ccn3Cc2cccc([N+](=O)[O-])c2)n1 was tested, and the Potency was inconclusive [inhibitor, single point].
In the case of Cc1cc(Br)cn2c(Cc3cccc(F)c3)c(-c3ccccc3)nc12, the Potency is reported as “inactive”.
For CCOC(=O)C(C)Sc1nc(-c2ccccc2)nc2ccccc12 (centres undefined), the Potency was inconclusive [inhibitor, full curve, poor fit].
O=C(NCc1cccc(C(F)(F)F)c1)c1cc(-c2ccccc2)nn1CC1CC(c2cccnc2)=NO1 (centres undefined) was tested, and the Potency was inconclusive [inhibitor, single point].
In the case of COc1ccccc1C(=O)C(=O)c1ccccc1OC, the Potency is reported as inconclusive [inhibitor, partial curve, poor fit].
With CCOc1cc(C(=O)NC(=S)Nc2ccc(Cl)c(C(=O)O)c2)cc(OCC)c1OCC the Potency was inconclusive [inhibitor, single point].
With Cc1onc(-c2ccccc2Cl)c1C(=O)c1ccccc1 the Potency was inconclusive [inhibitor, partial curve].
In the case of CC(NC(C(=O)c1ccccc1)c1ccccc1)c1ccccc1 (centres undefined), the Potency is reported as inconclusive [inhibitor, partial curve].
With O=C(COC(=O)CNC(=O)c1ccccc1)Nc1ccc(Cl)cn1 the Potency was “inactive”.
With COc1cc(CN2C(=O)C(C)ON=C2c2cccs2)cc(OC)c1 (centres undefined) the Potency was inconclusive [inhibitor, full curve].
For CCCN(CCC)Cc1cc(=O)oc2cc(C)ccc12, the Potency was inconclusive [inhibitor, single point].
For CCSc1oc(-c2ccco2)nc1S(=O)(=O)c1ccc(C)cc1, the Potency was inconclusive [inhibitor, partial curve].
For O=C(CSc1ccc(Cl)cc1)NC(=O)c1ccccc1, the Potency was “inactive”.
For CC(=O)c1c(-c2ccccc2)c2cc(Cl)ccc2n(C)c1=O, the Potency was inconclusive [inhibitor, full curve].
For O=C1NNC(c2ccccc2)=N/C1=C\c1ccccc1Cl, the Potency was inconclusive [inhibitor, single point].
C=CCOC(=O)C1=C[C@@H](c2ccc(Br)cc2)C[C@@H](OCCCCO)O1 was tested, and the Potency was inconclusive [inhibitor, single point].
